Among all 420,000 compounds or so, about 64,000 (15%) were called active. The shares of active, inactive and inconclusive entries below differ from those in the screen. The call rests on the fitted dose curve; in most records, active means well fitted inhibition curve with a large enough effect; inconclusive means small, poorly fitted or top-dose-only effect; inactive means flat fitted curve, though single readings scatter. Potencies of inconclusive entries are left out as doubtful fits.
experiment: qHTS for Inhibitors of human tyrosyl-DNA phosphodiesterase 1 (TDP1): qHTS in cells in absence of CPT; conditions: DT40 Tdp1-/- hTDP1 cells, no CPT, ATP luminescence, 48 h; series mostly up to 46.2 µM; further: nearly all actives have a fitted effect of over 55% in size
Outline: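 Chicken DT40 Tdp1-/- cells stably complemented with human TDP1 were seeded at 400 cells/well with DMSO in place of 20 nM camptothecin. After compound pinning, cells grew at least 48 hr at 37 °C; viability read by CellTiter-Glo luminescence.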
Potency means the concentration at half of the fitted maximal effect; tags describe the fitted curve by direction and shape.

SMILES	Potency
O=C1NCN(c2ccccc2)C12CCN(C(c1cccc3ccccc13)c1nnnn1C1CCCCC1)CC2 (stereo not drawn)	inconclusive [inhibitor, single point]
COC(=O)C1=C(c2cccc(OC)c2OC)C[C@@H]2CC[C@H]1N2C(=O)NC1CCCCC1	inconclusive [inhibitor, single point]
COc1cccc(C(C)(O)c2nc(-c3cccc(F)c3)cs2)c1 (stereo not drawn)	inconclusive [inhibitor, single point]
O=C(CCCOc1ccc(Cl)cc1Cl)N1CCC2(CC1)OCCO2	inconclusive [inhibitor, partial curve]
CN(CC1COc2ccccc2O1)c1nc(-c2cccnc2)nc2ccccc12 (stereo not drawn)	active: 23.1 µM
O=C(O)Cn1cc(/C=C2\C(=O)NC(=O)N(c3ccc(Cl)cc3)C2=O)c2ccccc21	inactive
O=C1Nc2ccc(Br)cc2C(c2ccccc2)=NC1O (stereo not drawn)	inconclusive [inhibitor, partial curve]
Cc1n[nH]c(C)c1CCCCOc1ccc([N+](=O)[O-])cc1	inconclusive [inhibitor, single point]
COc1cccc(CN(C)C[C@@H]2OCc3ccccc3-c3c(n(C)c4ccccc34)C(=O)N([C@@H](C)CO)C[C@H]2C)c1	inconclusive [inhibitor, partial curve, poor fit]
COC(=O)c1cc(C(O)(C(=O)OC)C(F)(F)F)c(/N=C/N(C)C)s1 (stereo not drawn)	inactive
COc1cc(OC)c2c(c1)OC(c1ccc(OC)c(OC)c1)C(O)C2 (stereo not drawn)	inactive
COc1ccc(C(CNC(=O)Cc2ccc(Cl)c(Cl)c2)N(C)C)cc1 (stereo not drawn)	inconclusive [inhibitor, single point]
CC1([N+](=O)[O-])COP(=O)(Nc2cccc(Cl)c2)OC1 (stereo not drawn)	inactive
CNC(=O)c1cccn(Cc2ccc(C(F)(F)F)cc2)c1=O	inconclusive [inhibitor, single point]
CCCCc1ccc(C(=O)O)nc1	inconclusive [inhibitor, single point]
BrCC1C[n+]2c(SCc3ccccc3)nc3sc4c(c3c2O1)CCCC4 (stereo not drawn)	inconclusive [inhibitor, partial curve]
CN1CCN(C(=O)COc2ccc(N(C)S(=O)(=O)c3ccc(F)cc3)cc2)CC1	inconclusive [inhibitor, single point]
Cc1cc(C=C(C#N)C#N)ccc1N1CCCC1	inconclusive [inhibitor, single point]
O=P(Nc1ccccc1)(Nc1ccccc1)Oc1cccc(Cl)c1	inconclusive [inhibitor, single point]
Brc1ccc2[nH]cc(C=NN3CCCCCC3)c2c1	active: 13 µM
COc1cccc(-n2c(-c3ccoc3)nc3ccccc3c2=O)c1	inconclusive [inhibitor, partial curve, poor fit]
CCC(=NCc1ccc2c(c1)OCO2)c1c(O)n(C2CCCCC2)c(=O)[nH]c1=O	inconclusive [inhibitor, single point]
CCC1(c2ccccc2)CCC(=O)NC1=O (stereo not drawn)	inactive
COC(=O)C1=C(c2ccc(OC(F)(F)F)cc2)C[C@@H]2CC[C@H]1N2C(=O)NCCOc1ccccc1	active: 18.4 µM
Cc1ccc(C(=O)N/C(=C\Cl)P(=O)(c2ccccc2)c2ccccc2)cc1	inconclusive [inhibitor, single point]

SMILES	Potency
CCCCCCn1c(=O)c(C(=O)Nc2nc(CC(=O)OCC)cs2)c(O)c2ccccc21	active: 3.66 µM
CCc1nc2ccc(Br)cc2c(=O)n1-c1ccccc1C(F)(F)F	inactive
CCc1ccc(-c2nn(Cc3ccccc3)cc2C=O)cc1	inconclusive [inhibitor, single point]
CC(=O)OC1CCC2(C)C(CCC3C2CC(=O)C2(C)C3CC(N3CC3)C2C(C)=O)C1 (stereo not drawn)	active: 13 µM
CC[C@]1(O)C(=O)OCc2c1cc1n(c2=O)Cc2cc3ccccc3nc2-1	active: 0.0211 µM
Oc1ccc2c3c1O[C@H]1c4[nH]c5c(c4C[C@@]4(O)[C@@H](C2)N(CC2CC2)CC[C@]314)C[C@@]1(O)[C@H]2Cc3ccc(O)c4c3[C@@]1(CCN2CC1CC1)[C@H]5O4	inactive
CN(C)Cc1c[nH]c2ccc([N+](=O)[O-])cc12	inconclusive [inhibitor, single point]
COc1cc(CNCCc2ccc3c(c2)OCO3)cc(OC)c1OC	inconclusive [inhibitor, single point]
N#Cc1ccc(CN2CC[C@@]3(CCCN(C(=O)Oc4ccccc4)C3)C2)cc1	inconclusive [inhibitor, single point]
CC(=O)Nc1ccccc1OP1(=O)COc2ccccc2OC1	inactive
CNC(=O)Oc1ccc2ncccc2c1	inconclusive [inhibitor, single point]
COc1cc(-n2c(=S)[nH]c3ccccc3c2=O)c(Cl)cc1Cl	active: 25.9 µM
CCCCN1C(=O)/C(=C/c2ccc(N(C)C)cc2)C(=O)N(Cc2ccco2)C1=O	inactive
COc1ccc(-n2c(O)c(C(C)=NCc3ccc4c(c3)OCO4)c(=O)[nH]c2=O)cc1	inactive
COc1ccc2c3c1O[C@H]1[C@@H](O)C=C[C@H]4[C@@H](C2)N(C)CC[C@@]341	inactive
CC(C)(C)C(=O)N1Cc2cc(N3CCCCC3)ccc2-n2nncc2C1	inconclusive [inhibitor, single point]
CSc1nc(N2CCN(C)CC2)c2ccccc2n1	inactive
Cc1ccc(C(C)C)c(OCCn2c(=O)oc3ccccc32)c1	inconclusive [inhibitor, single point]
CC1CC[C@@]2(OC1)OC1C(O)C3C4CC[C@H]5CC(O[C@@H]6O[C@@H](CO)[C@H](OC7OC(CO)C(O)C(OC8OCC(O)C(O)[C@H]8O)[C@@H]7O[C@@H]7OC(CO)[C@H](O)[C@@H](O[C@@H]8OC(CO)C(O)C(O)C8O)C7O)C(O)C6O)C(O)C[C@]5(C)C4CC[C@]3(C)C1C2C (stereo partly drawn)	active: 1.3 µM
COc1ccccc1NC1(C#N)CCCCC1	inactive
COC(=O)C1=C(c2cc3ccccc3s2)C[C@@H]2CC[C@H]1N2C(=O)N1CCC(C)CC1	active: 2.59 µM
CCN1CCN(c2cc(N3CCCC3)c(F)cc2[N+](=O)[O-])CC1	active: 16.4 µM
O=C(Nc1ccc(Br)cc1C(=O)c1ccccc1)c1ccccc1	inconclusive [inhibitor, partial curve]
CC(=O)OC1CN2CCC1CC2 (stereo not drawn)	inactive
CC(C)(C)c1ccc(O)c(N=Cc2c(O)ccc3ccccc23)c1	active: 16.4 µM

SMILES	Potency
CC(=O)Cc1c[nH]c2ccccc12	inconclusive [inhibitor, single point]
COC(=O)C1=C(c2cccc(C#N)c2)C[C@@H]2CC[C@H]1N2C(=O)NCCOc1ccccc1Cl	active: 16.4 µM
CN1CCN(c2ccc(/C=C3\C(=O)NC(=S)N(c4cccc(Br)c4)C3=O)o2)CC1	active: 16.4 µM
Cc1ccc(Cn2c(=O)n(CCCCC(=O)NCc3ccccc3Cl)c(=O)c3ccccc32)cc1	active: 5.17 µM
CCCNc1nc(OC)nc(N2CC3CC(C2)c2cccc(=O)n2C3)n1 (stereo not drawn)	inactive
Cc1cccc(C)c1Oc1nc(-c2ccccc2)ncc1S(=O)(=O)c1ccccc1	active: 18.4 µM
O=C1NC(=O)N(c2ccccc2F)C(=O)/C1=C/c1cn(CC(=O)N2CCOCC2)c2ccccc12	inconclusive [inhibitor, single point]
COc1ccc(-c2ccc3c(c2)CN(C(=O)C(C)(C)C)Cc2cnnn2-3)cc1	inconclusive [inhibitor, single point]
CCCOC(=O)Cc1ccc(OCC(=O)N(CC)CC)c(OC)c1	inconclusive [inhibitor, single point]
O=C(N/N=C/c1c(O)n(Cc2ccc(F)cc2)c(=O)[nH]c1=O)c1ccccc1O	inconclusive [inhibitor, single point]
CCOC(=O)C1=C(C)c2ccccc2OC1(C(=O)OCC)c1ccccc1 (stereo not drawn)	inconclusive [inhibitor, single point]
CCCC(C)C1(CC)C(=O)NC(=O)N=C1N (stereo not drawn)	inactive
O=S(=O)(NC1CCCCC1)OCC(Cl)(Cl)Cl	inactive
CC/C(CC(c1ccccc1)c1c(O)c2ccccc2oc1=O)=N\NC(N)=S (stereo not drawn)	inconclusive [inhibitor, single point]
O=c1[nH]cc(N(CCCl)CCCl)c(=O)[nH]1	inactive
O=c1c2ccccc2ncn1-c1ccc([N+](=O)[O-])c(C(F)(F)F)c1	inconclusive [inhibitor, single point]
CCOP(=O)(OCC)C(Nc1cccc(C)c1)c1ccc(F)cc1 (stereo not drawn)	active: 16.4 µM
O=C(COc1ccccc1Cl)N1CCCC(N2CCN(c3ccc(F)cc3)CC2)C1 (stereo not drawn)	inconclusive [inhibitor, single point]
O=C(NC1CC2CCCC(C1)N2)c1ccccc1 (stereo not drawn)	inactive
CS(=O)(=O)c1ccc(C2=C(CNC(=O)c3ccncc3)[C@H]3CC[C@@H](C2)N3Cc2ccco2)cc1	inactive
CN(C)c1cccc2c(C#N)ccc(N(C)C)c12	inactive
OCCNc1c2c(nc3ccccc13)CCCC2	inactive
CCOc1ccc(N2C(=O)NC(=O)/C(=C\c3ccccc3[N+](=O)[O-])C2=O)cc1	inconclusive [inhibitor, partial curve, poor fit]

Source: PubChem BioAssay AID686978 (National Center for Advancing Translational Sciences (NCATS), 2013)
